In PubChem BioAssay AID1645887 (National Center for Advancing Translational Sciences (NCATS), 2021) one finds activation data, which are given here for 53 compounds.

Where “and” joins values, the source holds several entries; their conditions need not be identical. Equal values may be shown once. In all, about 16,000 compounds went through this assay and about 40 (0.2%) were called active. Inconclusive results (about 1%) are left out. Calls come from the whole dose curve; as a rule, active = well fitted activation curve with a large enough effect; inconclusive = small, poorly fitted or top-dose-only effect, or another doubt; inactive = no such curve, though single readings can be large or run the other way. Some of the results follow. Starred links: 1 amine or outer side, 2 acyl side, 3 side chain; linkers in the order of their positions; H or OH if unused. Positions of bridges follow the written chain, without caps; N, C: chain ends. Non-standard residues stand in square brackets, D forms with d. Residues, ends and D or L forms follow the SMILES beside them. ξ: configuration not given here. *: point of attachment. ΔAla(E,3-NHCONH2) = NC(=O)N/C=C(/N)C(=O)O; X11 = NC1=NCCC(C(N[*:1])C(=O)[*:2])N1; ξβ3hOrn = NCCCC(N)CC(=O)*; Dap = NC[CH](N)C(=O)O
% is set by controls: 0 for no effect and ±100 for the full control effect.

Chain of UniProt Q8WZA2 (Q8WZA2 whole entry, looked up): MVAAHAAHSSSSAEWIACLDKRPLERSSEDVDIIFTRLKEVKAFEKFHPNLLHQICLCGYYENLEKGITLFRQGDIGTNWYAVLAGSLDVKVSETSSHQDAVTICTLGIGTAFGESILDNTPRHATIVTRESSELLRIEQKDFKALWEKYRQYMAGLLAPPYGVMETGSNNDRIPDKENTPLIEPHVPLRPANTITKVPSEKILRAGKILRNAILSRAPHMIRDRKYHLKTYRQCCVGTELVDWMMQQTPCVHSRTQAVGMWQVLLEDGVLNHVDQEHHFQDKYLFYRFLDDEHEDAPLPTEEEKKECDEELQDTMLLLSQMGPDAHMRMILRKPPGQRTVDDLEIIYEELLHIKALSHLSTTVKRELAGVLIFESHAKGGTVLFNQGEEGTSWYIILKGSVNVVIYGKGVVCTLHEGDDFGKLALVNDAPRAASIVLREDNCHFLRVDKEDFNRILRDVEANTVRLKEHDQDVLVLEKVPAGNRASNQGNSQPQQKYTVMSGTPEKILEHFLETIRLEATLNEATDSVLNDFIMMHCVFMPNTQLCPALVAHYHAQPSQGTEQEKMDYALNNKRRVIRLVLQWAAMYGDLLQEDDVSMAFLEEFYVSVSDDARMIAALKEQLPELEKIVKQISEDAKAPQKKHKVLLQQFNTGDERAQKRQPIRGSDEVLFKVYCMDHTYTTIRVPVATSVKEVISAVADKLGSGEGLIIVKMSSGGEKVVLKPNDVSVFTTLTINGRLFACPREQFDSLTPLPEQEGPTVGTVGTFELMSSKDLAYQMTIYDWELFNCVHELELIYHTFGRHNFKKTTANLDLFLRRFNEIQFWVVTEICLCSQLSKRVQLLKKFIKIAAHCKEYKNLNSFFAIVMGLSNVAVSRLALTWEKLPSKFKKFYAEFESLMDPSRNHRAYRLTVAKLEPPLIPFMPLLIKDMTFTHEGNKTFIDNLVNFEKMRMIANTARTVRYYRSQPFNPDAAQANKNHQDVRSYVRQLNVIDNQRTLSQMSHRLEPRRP

The assay addresses Rap guanine nucleotide exchange factor 4 (Homo sapiens) (UniProt Q8WZA2). Briefly: Validation qHTS for agonist of cAMP-regulated guanine nucleotide exchange factor 4 (EPAC2).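 Note: exchange makes BODIPY-GDP fluorescence drop when released from Rap1B; series mostly up to about 150 µM.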 As to conditions: EPAC2 Rap1B BODIPY-GDP exchange, fluorescence; activation: stronger effect = higher value. An excerpt:
Principle Investigator: Xiaodong Cheng Ph.D.
The University of Texas Medical Branch, […], TX
In multi-cellular eukaryotic organisms, the effects of cAMP are transduced by two ubiquitously-expressed intracellular cAMP receptors, the classic protein kinase A/cAMP-dependent protein kinase (PKA/cAPK) and the more recently discovered exchange protein directly activated by cAMP/cAMP-regulated guanine nucleotide exchange factor (EPAC/cAMP-GEF). Both PKA and EPAC are ubiquitously expressed in all tissues, and an increase in intracellular cAMP levels will lead to the activation of both PKA and EPAC. Therefore, careful dissections of the individual role and relative contribution of EPAC and PKA within the overall cAMP signaling in various model systems are critical for further elucidating the mechanism of cAMP signaling. To date no EPAC-specific antagonists and agonist, as well as isoform-specific agonists have been reported, and developing EPAC-specific pharmacological probes to determine the physiological functions that EPAC play in the overall cAMP-mediated signaling remains a major challenge within the research field. Furthermore, identified regulators of EPAC may lead to new mechanism-based therapeutic strategies specifically targeting the EPAC / cAMP-signaling components as EPAC has been implicated to play important roles in major human pathological conditions such as diabetes, heart disease, and cancer.
This qHTS will be used to screen the Molecular Libraries Small Molecule Repository (MLSMR) as a concentration-titration series using the NCGC unique quantitative screening (qHTS) platform to find activators for EPAC1. In addition, this assay will also be used as a counterscreen for the EPAC2 qHTS. This fluorescent based assay is developed and validated for EPAC1 that measures exchange using EPAC effector Rap1 complex with BODIPY-GDP, a GDP analog with a tethered fluorophores. Activators are identified by monitoring the change in fluorescence signal as the exchanged free BODIPY-GDP has a reduced fluorescence compared to Rap1-bound BODIPY-GDP. Increase in signal (activation) is the desired outcome for the EPAC1 agonist while no activity in this assay is desired for the EPAC2 agonist counterscreen.
[1] de Rooij, J., Zwartkruis, F. J., Verheijen, M. H., Cool, R. H., Nijman, S. M., Wittinghofer, A., and Bos, J.L. (1998) Nature 396, 474-477.
Briefly, three uL of reagents (100 nM EPAC2, 250 nM RAP1B-BODIPY-GDP, 50 uM GDP) were dispensed into a 1536-well Greiner black solid-bottom medium binding assay plate. Controls and test compounds (23 nL) were transferred to the plate via a Kalypsys pin tool equipped with a 1536-pin array. The plates were centrifuged at 1,000 rpm for 15 seconds followed by 5 minute incubation at room temperature. The assay plates were read at 5 minute intervals for 30 minutes in the ViewLux plate reader using 480nm excitation and 540nm emission filters. The results were normalized to the agonist positive control of 6.5 mM cAMP.
On the technique in general: In qHTS, concentration-response curves come from the screen itself.
`CC1CCC2(C(=O)O)CCC3(C)C(=CCC4C3(C)CCC3[C@@]4(C)CC(O)C(O)[C@@]3(C)CO)C2C1C` (stereo partly drawn): the activation was inactive: -48.2%. With `COc1ccc2nc(NC(=O)Nc3ccccc3)sc2c1`, the activation was inactive: -21.3%. In the case of `CS(=O)(=O)Nc1cccc(-c2ccc3ncnc(NCc4cccnc4)c3c2)c1` it was inactive: -10.3%. Under `Cc1ccccc1-c1cc(NCc2ccccc2)ncn1` stands inactive: -9.16%; under `CC(=O)NCCNc1nc(-c2ccccc2C(F)(F)F)nc2ccccc12`, inactive: -8.78%; under `Nc1ncnc2c1ncn2[C@@H]1O[C@H](COP(=O)(O)OP(=O)(O)OP(=O)(O)O)[C@@H](O)[C@H]1O`, inactive: 1.95%. In the case of `CCC(=O)O[C@]1(C(=O)CCl)[C@@H](C)C[C@H]2[C@@H]3C[C@H](F)C4=CC(=O)C=C[C@]4(C)[C@@]3(F)[C@@H](O)C[C@@]21C` it was inactive: 9.71%; in that of `CC(C)Oc1ccc2c(=O)c3cc(C(=O)O)ccc3oc2c1`, inactive: -26.1%; in that of `CCOC(=O)/C=C/c1ccc2c(c1)S(=O)(=O)N(Cc1ccc(OC)cc1)[C@H]2CC(=O)OCC`, inactive: -12.4%. With `COCCn1c(=O)c(CCc2ccccc2)nc2cncnc21`, the activation is inactive: -4.71%.

In the case of `Cc1cnc(CNc2nc(-c3ccccc3C)nc3ccccc23)cn1`, the activation is inactive: 0.402%. Under `OC1CCN(Cc2ccc3c(c2)CN(C/C=C/c2ccco2)CCO3)CC1` stands inactive: -9.66%. In the case of `Cc1noc(C)c1C(=O)N1CCC2(CC1)CCN(c1cccc(-c3ccccc3)c1)CC2` it was inactive: -35%; in that of `N[C@@H](C(=O)N[C@@H]1C(=O)N2C(C(=O)O)=C(CSc3cn[nH]n3)CS[C@H]12)c1ccc(O)cc1`, inactive: 4.47%; in that of `CCNc1ncc2nc(-c3cccc(C#N)c3)c(=O)n(CCC#N)c2n1`, inactive: -7.9%.

Take `O=C(NCC1Cc2cc(-c3cnc4ccccc4c3)cc(F)c2O1)c1cnsn1` (stereo not drawn): the activation is inactive: -5.69%.

For `N[C@H](Cc1ccc(Cl)cc1)C(=O)O`, the activation is inactive: -4.42%. Under `COc1ccccc1C1CN(Cc2cn(C)nc2C)Cc2ccccc2O1` (stereo not drawn) stands inactive: -21.6%; under `COc1ccc(-c2cc(=O)c3ccc(O)cc3o2)cc1`, inactive: 2.86%; under `Cc1cc(C)c2ccccc2n1`, inactive: -17.1%. On to `Cc1c(C(=O)NN2CCOCC2)nn(-c2ccc(Cl)cc2Cl)c1-c1ccc(I)cc1`, for which the activation is inactive: -23.8%. In the case of `CCN1CC(CCN2CCOCC2)C(c2ccccc2)(c2ccccc2)C1=O` (stereo not drawn), the activation is inactive: 16.5%. In the case of `CN(C(=O)c1cnn(-c2ncc3c(n2)-c2ccccc2CCC3)c1C1CC1)C1CCOC1` (stereo not drawn) it was inactive: -15.6%.

Turning to `O=C(C[N+]1(CCc2ccccc2)CCOCC1)c1cccc([N+](=O)[O-])c1`, the activation was inactive: -6.4%. On to `COc1ccc(CN2CCCC(c3nc(-c4ccncc4)ncc3-c3ccccc3C)C2)c(OC)c1` (stereo not drawn), for which the activation is inactive: 5.11%. With `Cc1csc(-c2nc3ccccc3n2C)n1`, the activation is inactive: 1.35%. In the case of `COCC(=O)N1CCC2(CC1)CN(C(=O)Nc1cccc(F)c1)C2` it was inactive: 1.4%. In the case of `O=C(O)Cc1sc(-c2ccccc2)nc1-c1ccc(Cl)cc1` it was inactive: -16.4% and inactive: -7.58% and inactive: -21.3%; in that of `CC(=O)OCC(=O)[C@@]12N=C(C)O[C@@H]1C[C@H]1[C@@H]3CCC4=CC(=O)C=C[C@]4(C)[C@H]3[C@@H](O)C[C@@]12C`, inactive: -10.6%; in that of `C#CCN1C(C)=C(C(=O)OC)C(c2cccc([N+](=O)[O-])c2)C(C(=O)OCC)=C1C` (stereo not drawn), inactive: -23%.

As for `OCc1cc(C(O)CNCCCCCCOCCCCc2ccccc2)ccc1O` (stereo not drawn), the activation was inactive: -15.4% and inactive: -30.7% and inactive: -69.4%. Under `COc1ccc(C(=O)/C=C/c2ccccc2)cc1` stands inactive: -10.1%; under `COc1ccc(-c2nc3cnc(Oc4cccc(Cl)c4)nc3n(CCC#N)c2=O)cc1`, inactive: -21.2%; under `C[C@@](N)(C(=O)O)c1cccc(CC(=O)O)c1`, inactive: 0.169%. In the case of `Cc1noc(C)c1-c1nc(NCc2ccccc2)c2ccccc2n1`, the activation was inactive: -23%. On to `C[C@@H](CN1CC(=O)NC(=O)C1)N1CC(=O)NC(=O)C1`, for which the activation was inactive: 5.87%.

Take `O=S1(=O)CCO[C@H]2Cc3ccccc3[C@H]2N1Cc1ccccc1F`: the activation was inactive: -7.43%. In the case of `O=c1c(-c2ccc(F)cc2)nc2cnc(N3CCOCC3)nc2n1Cc1cccs1` it was inactive: 8.43%. In the case of `FC(F)(F)c1ccccc1-c1nc(Nc2ccncc2)c2ccccc2n1` it was inactive: -2.13%; in that of `CC(=O)Nc1ccc(CC(=O)O)cc1`, inactive: 5.38%.

In the case of `O=c1c(-c2cccc(Cl)c2)nc2cncnc2n1C1CC1`, the activation is inactive: 0.439%. Regarding `c1ccc(Nc2ncncc2-c2ccoc2)cc1`, the activation was inactive: 13.2%. Under `COc1cccc(-c2ccc3ncnc(NCc4cnc(C)cn4)c3c2)c1` stands inactive: -10.8%; under `Fc1ccc(Nc2ncnc3ccc(-c4ccoc4)cc23)cc1`, inactive: -23.2%. In the case of `Cc1nc2n(c(=O)c1CCN1CCC(c3noc4cc(F)ccc34)CC1)CCCC2` it was inactive: 6.04%.

On to `CNCCC(Oc1ccc(C(F)(F)F)cc1)c1ccccc1` (stereo not drawn), for which the activation was inactive: -19.6% and inactive: 3.82% and inactive: -43.8%. In the case of `C(=C\c1ccnc2ccccc12)/c1ccc(N2CCNCC2)cc1`, the activation was inactive: -34.3%. For the compound `CC(C)[N+]1(C)C2CCC1CC(OC(=O)C(CO)c1ccccc1)C2` (stereo not drawn), the activation was inactive: -2.16% and inactive: 12.4%. Under `O=S(=O)(O)CCS` stands inactive: -1.59% and inactive: 0.998%; under `O=S1(=O)CCOCCCN1Cc1ccccc1`, inactive: -1.85%; under `NCCCC(N)CC(=O)NCC1NC(=O)C(CO)NC(=O)C(N)CNC(=O)C(C2CCN=C(N)N2)NC(=O)/C(=C\NC(N)=O)NC1=O` (stereo not drawn) (H-[Dap]S[Dap](ξβ3hOrn)[ΔAla(E,3-NHCONH2)][X11]; lactam 1-C; configuration not given here), inactive: -1.48%. Under `CCn1cc(C(=O)O)c(=O)c2cnc(N3CCCC3)nc21` stands inactive: -4.76% and inactive: -9.46%. Consider `O=C(c1ccncc1)N1CCC2(CC1)CCN(c1ccccc1)CC2`, for which the activation was inactive: -11.7%.
